Results: the supplement of paper PMC4967469

Compound: FC(F)c1nc2ccccc2n1-c1nc(N2CCOCC2)nc(N2CCOCC2)n1 [ZSTK474]
Assay: Viability of human cancer cell lines after 72 h of drug (GDSC screen)
Description: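 Human cancer cell lines in 384-well plates, medium with 10% serum, drug for 72 h over a 256-fold dose range (nine 2-fold or five 4-fold steps up to the top dose). Adherent lines were fixed and stained with the nucleic acid dye Syto60, suspension lines read with resazurin; signal relative to control wells, capped at 0 and 100%. One two-parameter sigmoid per drug and line, fitted in a mixed model over all curves with the slope shared within a line.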

| Cell Line | AUC | IC50 [nM] |
| --- | --- | --- |
| G-MEL (melanoma, adherent, top dose 5.12 µM) | 0.835 | 3310 |
| GAK (melanoma, adherent, top dose 5.12 µM) | 0.93 | > 5120 |
| GAMG (glioma, adherent, top dose 5.12 µM) | 0.632 | 756 |
| GB-1 (glioma, adherent, top dose 5.12 µM) | 0.707 | 1380 |
| GCIY (stomach, adherent, top dose 5.12 µM) | 0.97 | > 5120 |
| GCT (soft tissue, adherent, top dose 5.12 µM) | 0.989 | > 5120 |
| GDM-1 (acute myeloid leukaemia, suspension, top dose 5.12 µM) | 0.253 | 64.8 |
| GI-1 (glioma, adherent, top dose 5.12 µM) | 0.719 | 1300 |
| GI-ME-N (neuroblastoma, adherent, top dose 5.12 µM) | 0.74 | 2030 |
| GMS-10 (glioma, adherent, top dose 5.12 µM) | 0.98 | > 5120 |
| GOTO (neuroblastoma, adherent, top dose 5.12 µM) | 0.93 | > 5120 |
| GP5d (large intestine, adherent, top dose 5.12 µM) | 0.883 | 4500 |
| GR-ST (lymphoblastic leukaemia, suspension, top dose 5.12 µM) | 0.582 | 563 |
| GRANTA-519 (B-cell lymphoma, suspension, top dose 5.12 µM) | 0.6 | 582 |
| GT3TKB (stomach, adherent, top dose 5.12 µM) | 0.977 | > 5120 |
| H4 (glioma, adherent, top dose 5.12 µM) | 0.877 | 5040 |
| H9 (lymphoid neoplasm, suspension, top dose 5.12 µM) | 0.992 | > 5120 |
| H290 (mesothelioma, adherent, top dose 5.12 µM) | 0.892 | 5120 |
| H513 (mesothelioma, semi-adherent, top dose 5.12 µM) | 0.834 | 4420 |
| H2369 (mesothelioma, adherent, top dose 5.12 µM) | 0.969 | > 5120 |
| H2373 (mesothelioma, adherent, top dose 5.12 µM) | 0.973 | > 5120 |

| Cell Line | AUC | IC50 [nM] |
| --- | --- | --- |
| H2461 (mesothelioma, adherent, top dose 5.12 µM) | 0.957 | > 5120 |
| H2591 (mesothelioma, adherent, top dose 5.12 µM) | 0.916 | > 5120 |
| H2595 (mesothelioma, adherent, top dose 5.12 µM) | 0.944 | > 5120 |
| H2722 (mesothelioma, adherent, top dose 5.12 µM) | 0.944 | > 5120 |
| H2731 (mesothelioma, adherent, top dose 5.12 µM) | 0.492 | 303 |
| H2795 (mesothelioma, adherent, top dose 5.12 µM) | 0.632 | 735 |
| H2803 (mesothelioma, adherent, top dose 5.12 µM) | 0.879 | > 5120 |
| H2804 (mesothelioma, adherent, top dose 5.12 µM) | 0.826 | 3510 |
| H2818 (mesothelioma, adherent, top dose 5.12 µM) | 0.981 | > 5120 |
| H2869 (mesothelioma, adherent, top dose 5.12 µM) | 0.756 | 2140 |
| H3118 (head and neck, adherent, top dose 5.12 µM) | 0.706 | 1290 |
| H3255 (lung adenocarcinoma, adherent, top dose 5.12 µM) | 0.876 | > 5120 |
| H-EMC-SS (chondrosarcoma, adherent, top dose 5.12 µM) | 0.785 | 2900 |
| HA7-RCC (kidney, adherent, top dose 5.12 µM) | 0.726 | 1520 |
| HAL-01 (lymphoblastic leukaemia, suspension, top dose 5.12 µM) | 0.104 | 20.3 |
| HARA (lung squamous cell carcinoma, adherent, top dose 5.12 µM) | 0.631 | 786 |
| HC-1 (hairy cell leukaemia, suspension, top dose 5.12 µM) | 0.506 | 332 |
| HCC38 (breast, adherent, top dose 5.12 µM) | 0.852 | 4450 |
| HCC70 (breast, adherent, top dose 5.12 µM) | 0.66 | 882 |
| HCC202 (breast, adherent, top dose 5.12 µM) | 0.578 | 569 |
| HCC1143 (breast, adherent, top dose 5.12 µM) | 0.781 | 3070 |

| Cell Line | AUC | IC50 [nM] |
| --- | --- | --- |
| HCC1187 (breast, suspension, top dose 5.12 µM) | 0.586 | 545 |
| HCC1395 (breast, adherent, top dose 5.12 µM) | 0.943 | > 5120 |
| HCC1419 (breast, adherent, top dose 5.12 µM) | 0.754 | 2410 |
| HCC1428 (breast, adherent, top dose 5.12 µM) | 0.946 | > 5120 |
| HCC1500 (breast, adherent, top dose 10.24 µM) | 0.515 | 703 |
| HCC1569 (breast, adherent, top dose 5.12 µM) | 0.584 | 588 |
| HCC1599 (breast, suspension, top dose 5.12 µM) | 0.669 | 1020 |
| HCC1806 (breast, adherent, top dose 5.12 µM) | 0.911 | > 5120 |
| HCC1937 (breast, adherent, top dose 5.12 µM) | 0.793 | – |
| HCC1954 (breast, adherent, top dose 5.12 µM) | 0.596 | 616 |
| HCC2157 (breast, suspension, top dose 5.12 µM) | 0.851 | 4240 |
| HCC2218 (breast, suspension, top dose 5.12 µM) | 0.692 | 1280 |
| HCC2998 (large intestine, adherent, top dose 5.12 µM) | 0.908 | > 5120 |
| HCC-15 (lung squamous cell carcinoma, adherent, top dose 5.12 µM) | 0.905 | > 5120 |
| HCC-33 (small cell lung carcinoma, adherent, top dose 5.12 µM) | 0.904 | > 5120 |
| HCC-44 (lung adenocarcinoma, adherent, top dose 5.12 µM) | 0.863 | 4250 |
| HCC-56 (large intestine, adherent, top dose 5.12 µM) | 0.846 | 3860 |
| HCC-78 (lung adenocarcinoma, adherent, top dose 5.12 µM) | 0.609 | 671 |
| HCC-827 (lung adenocarcinoma, adherent, top dose 5.12 µM) | 0.752 | 1930 |
| HCE-4 (oesophagus, adherent, top dose 5.12 µM) | 0.928 | > 5120 |
| HCT-15 (large intestine, adherent, top dose 5.12 µM) | 0.792 | 2470 |

| Cell Line | AUC | IC50 [nM] |
| --- | --- | --- |
| HCT-116 (large intestine, adherent, top dose 5.12 µM) | 0.855 | 3760 |
| HD-MY-Z (Hodgkin lymphoma, adherent, top dose 5.12 µM) | 0.727 | 1420 |
| HDLM-2 (Hodgkin lymphoma, suspension, top dose 5.12 µM) | 0.848 | 3700 |
| HDQ-P1 (breast, adherent, top dose 5.12 µM) | 0.837 | 4400 |
| HEC-1 (endometrium, adherent, top dose 5.12 µM) | 0.941 | > 5120 |
| HEL (acute myeloid leukaemia, semi-adherent, top dose 5.12 µM) | 0.761 | 1540 |
| HGC-27 (stomach, adherent, top dose 5.12 µM) | 0.557 | 445 |
| HH (T-cell leukaemia, suspension, top dose 5.12 µM) | 0.262 | 52.4 |
| HL-60 (acute myeloid leukaemia, suspension, top dose 5.12 µM) | 0.527 | 377 |
| HLE (liver, adherent, top dose 5.12 µM) | 0.899 | > 5120 |
| HMV-II (melanoma, adherent, top dose 5.12 µM) | 0.888 | > 5120 |
| HN (head and neck, adherent, top dose 5.12 µM) | 0.967 | > 5120 |
| HO-1-N-1 (head and neck, adherent, top dose 5.12 µM) | 0.93 | > 5120 |
| HO-1-u-1 (head and neck, adherent, top dose 5.12 µM) | 0.928 | > 5120 |
| HOP-62 (lung adenocarcinoma, adherent, top dose 5.12 µM) | 0.865 | 4500 |
| HOP-92 (large cell lung carcinoma, adherent, top dose 5.12 µM) | 0.947 | > 5120 |
| HOS (osteosarcoma, adherent, top dose 5.12 µM) | 0.95 | > 5120 |
| HPAC (pancreas, adherent, top dose 5.12 µM) | 0.786 | 3250 |

A lower IC50 marks a more sensitive line; where the fit passes the top or lowest dose, that dose stands as a limit. AUC is the area under the same curve over the 256-fold range up to the top dose, as a fraction; values near 1 show little effect.
